Whole data set: some 110,000 compounds, median “z-score” near -0.1, cut for the highest 2% near 2. Some of the results follow. The source made the active and inactive calls.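 The calls were made as follows: active = z-score in the third read window above 3 or below -3; inactive = the rest.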
molecular target: Metabotropic glutamate receptor 8 (Rattus norvegicus) (UniProt P70579); assay: mGluR8 Gi/Go-coupled signaling modulation – cell-based, rat, thallium flux, HTS, primary screen (AID 488969); settings: HEK293 rat mGluR8, GIRK (G protein-gated inwardly rectifying potassium channel) thallium flux, FluoZin2; at 10 µM; stronger effect = higher value
Sequence of UniProt P70579 (P70579 whole entry, looked up): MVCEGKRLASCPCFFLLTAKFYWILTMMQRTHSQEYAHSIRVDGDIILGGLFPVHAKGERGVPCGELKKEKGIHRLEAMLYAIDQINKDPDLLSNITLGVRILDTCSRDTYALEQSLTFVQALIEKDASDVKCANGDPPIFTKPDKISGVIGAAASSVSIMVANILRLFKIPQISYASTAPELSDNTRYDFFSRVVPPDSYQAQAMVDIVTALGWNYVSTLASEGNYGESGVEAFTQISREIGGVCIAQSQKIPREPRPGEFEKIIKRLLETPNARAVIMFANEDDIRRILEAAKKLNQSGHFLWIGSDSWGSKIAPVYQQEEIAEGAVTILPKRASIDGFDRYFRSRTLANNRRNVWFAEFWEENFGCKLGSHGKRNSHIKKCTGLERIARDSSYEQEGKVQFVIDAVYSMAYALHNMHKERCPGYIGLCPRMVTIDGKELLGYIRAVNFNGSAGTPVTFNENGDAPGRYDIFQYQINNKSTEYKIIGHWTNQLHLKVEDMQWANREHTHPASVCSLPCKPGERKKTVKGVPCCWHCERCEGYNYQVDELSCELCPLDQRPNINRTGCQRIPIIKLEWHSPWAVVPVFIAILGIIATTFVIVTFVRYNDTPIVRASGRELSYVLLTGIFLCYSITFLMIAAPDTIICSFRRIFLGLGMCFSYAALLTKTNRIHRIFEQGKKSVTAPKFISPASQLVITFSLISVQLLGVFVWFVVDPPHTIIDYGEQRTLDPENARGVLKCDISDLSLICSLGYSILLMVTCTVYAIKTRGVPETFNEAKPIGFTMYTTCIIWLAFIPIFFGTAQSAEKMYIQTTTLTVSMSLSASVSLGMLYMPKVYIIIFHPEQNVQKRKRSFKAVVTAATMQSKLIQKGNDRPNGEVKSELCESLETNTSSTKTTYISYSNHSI

Cc1ccc2nc(N3CCC(C(=O)N4CCC5(CC4)OCCO5)CC3)sc2c1 was tested, and the z-score was active: 4.28.

In order of rising z-score:
1. CC(C)(C)OC(=O)c1c(N)n(Cc2ccco2)c2nc3ccccc3nc12  -2.21
2. O=C(CCNS(=O)(=O)c1ccccc1)Nc1ccc(Cl)cc1C(=O)c1ccccc1  -2.06
3. CCCCn1c(O)c(C(CC)=Nc2ccc(OCC)cc2)c(=O)[nH]c1=O  -1.35
4. CCCCn1c(O)c(C(CC)=NCCN2CCCCC2)c(=O)[nH]c1=O  -1.26
5. Cc1ccc(N)c(C(=O)c2ccccc2)c1  -0.804
6. Cc1ccc(N=Nc2c(O)[nH]c(=O)[nH]c2=O)c([N+](=O)[O-])c1  -0.78
7. CCOC(=O)c1c(NC(=O)c2c(N)n(CCCOC)c3nc4ccccc4nc23)sc2c1CCCC2  -0.769
8. COc1ccc2c(c1)c(C(=O)CN1CCC3(CC1)OCCO3)c(C)n2Cc1ccccc1  -0.618
9. CN1C(=O)C(=CN2CCN(C(=O)c3ccco3)CC2)C(=O)N(C)C1=S  -0.612
10. C=CCOC(=O)C1=C(C)OC(N)=C(C(=O)OCC)C12C(=O)N(CC(N)=O)c1ccccc12 (stereo unspecified)  -0.605
11. Cc1ccc(N2C(=O)NC(=O)/C(=C\C=C\c3ccco3)C2=O)cc1C  -0.569
12. Cc1oc2ccc(OC(=O)N(C)C)cc2c1C(=O)OC(C)C  -0.541
13. Cc1cc(C)c(-n2c(O)c(/C=N/N3CCCCC3c3cccnc3)c(=O)[nH]c2=O)c(C)c1 (stereo unspecified)  -0.531
14. O=c1c2ccccc2nc(-c2ccoc2)n1-c1ccccc1  -0.526
15. C=CCN1C(=O)C2(C(C(=O)OCC)=C(N)Oc3ccccc32)c2c1c1ccccc1oc2=O (stereo unspecified)  -0.513
16. Clc1ccc(C2N3CCCN23)c(Cl)c1 (stereo unspecified)  -0.425
17. CC(C)CCCn1c(O)c(/C=C2/C=CC=N2)c(=O)[nH]c1=O  -0.41
18. CCC(=NCCOc1ccc(Cl)cc1)c1c(O)n(C)c(=O)n(C)c1=O  -0.392
19. CN1CCN(c2cc(N3CCCC3)c([N+](=O)[O-])cc2F)CC1  -0.391
20. Cc1nc2cc(C(=O)N3CCC4(CC3)OCCO4)ccc2n1-c1cccc(F)c1  -0.389
21. CCC1CCCCN1CC(=O)c1ccc(OC(F)F)cc1 (stereo unspecified)  -0.381
22. CC(C)CC(=O)NC(Oc1ccc(Cl)cc1)C(Cl)(Cl)Cl (stereo unspecified)  -0.379
23. COc1cc(N2CCOCC2)ccc1C=C1C(=O)NC(=O)NC1=O  -0.374
24. COc1ccc2c(c1)c(C(=O)O)c(C)n2CC(C)C  -0.367
25. CCCCOc1ccc(CN2CCN(CCO)CC2)cc1  -0.357
26. CCN(CC)CCCN=C(C)c1c(O)n(-c2ccc(C)cc2)c(=O)[nH]c1=O  -0.346
27. CC(C)CC12CN3CCN(CC(C3)C1O)C2 (stereo unspecified)  -0.327
28. CCOc1ccccc1NC(=O)N1CCC2(CC1)OCCO2  -0.318
29. C=CCn1c(O)c(C(CC)=NCCc2ccccc2)c(=O)[nH]c1=O  -0.31
30. Cc1cccc(N2C(=O)NC(=O)/C(=C/c3ccc([N+](=O)[O-])o3)C2=O)c1  -0.279
31. C/C(=N\N1CCCCCC1)c1c(O)n(-c2ccc(C)cc2)c(=O)[nH]c1=O  -0.275
32. Cc1cccc(C(=O)NC(Oc2ccccc2)C(Cl)(Cl)Cl)c1 (stereo unspecified)  -0.253
33. COc1ccc(CCN(C)Cc2ccncc2)cc1OC  -0.229
34. Cc1cc(/C=C2\C(=O)NC(=O)N(C)C2=O)c(C)n1-c1ccc2c(c1)OCO2  -0.21
35. Cc1cc(C)cc(N2C(=O)NC(=O)/C(=C\c3cccn3-c3ccccc3)C2=O)c1  -0.205
36. COc1ccc(/C=C2/C(=O)NC(=O)N(c3ccc(C)c(C)c3)C2=O)cc1CN1C(=O)c2ccccc2C1=O  -0.202
37. CCOC(=O)c1c(C)c(P(=S)(N2CCOCC2)N2CCOCC2)n(C)c1C  -0.197
38. COc1cc(Cn2c(N)c(C(=O)NCc3ccco3)c3nc4ccccc4nc32)cc(OC)c1OC  -0.195
39. Fc1ccc(Cn2nnnc2C(c2ccc(F)cc2)N2CC=C(c3ccc(F)cc3)CC2)cc1 (stereo unspecified)  -0.172
40. CSc1ncc(/C=C2/C(=O)NC(=O)N(C3CCCCC3)C2=O)cn1  -0.17
41. CCS(=O)(=O)NCc1nnc2n1-c1ccc(Cl)cc1C(c1ccccc1)=NC2  -0.148
42. COc1cc2c(cc1OC)C(C(=O)N(C)C1CCCCC1)C1CCCCN1C2=O (stereo unspecified)  -0.133
43. CC(=NCc1ccco1)c1c(O)n(-c2ccccc2)c(=O)[nH]c1=O  -0.133
44. Cn1cccc1/C=C1\C(=O)NC(=O)N(CCC2=CCCCC2)C1=O  -0.117
45. CCC(C)n1c(O)c(C(c2ccccn2)c2c(O)n(C(C)CC)c(=S)[nH]c2=O)c(=O)[nH]c1=S (stereo unspecified)  -0.115
46. Cc1cc(C)c(S(=O)(=O)NCC2CCC(C(=O)N3CCC4(CC3)OCCO4)CC2)c(C)c1 (stereo unspecified)  -0.111
47. Cc1nn(Cc2ccc(Cl)cc2Cl)c(Cl)c1C(=O)NC1CCCc2ccccc21 (stereo unspecified)  -0.109
48. Cc1ccc(S(=O)(=O)N2CCCCC2)cc1NC(=O)CN1CC=C(c2ccccc2)CC1  -0.105
49. COc1ccccc1NC1=NCCS1  -0.101
50. CCOP(=O)(C(NC(=O)c1ccccc1Cl)=C(Cl)Cl)c1ccccc1 (stereo unspecified)  -0.0996
51. O=c1[nH]c(=S)n(C2CC2)c(O)c1/C=N/N1CCOCC1  -0.0931
52. c1cncc(CNC2=NCCC2)c1  -0.0881
53. O=Cc1cn(Cc2ccc(F)cc2Cl)c2ccccc12  -0.0777
54. CC(NC(=O)Oc1ccccc1)C(c1cccs1)N1CCOCC1 (stereo unspecified)  -0.0704
55. CC(=O)c1c(C)n(CCCOC(C)C)c2ccc(O)cc12  -0.0672
56. CC(C)N1C(=O)CC2(CC[N+](C)(CCOC(=O)C(O)(c3ccccc3)c3ccccc3)CC2)C1=O (stereo unspecified)  -0.0577
57. CC/C(=N\Nc1ccccc1)c1c(O)n(C)c(=O)n(C)c1=O  -0.0457
58. CC(C)(C)N1Cc2ccccc2C1=N  -0.0341
59. COc1ccc(-n2c(O)c(C(C)=NCCCn3ccnc3)c(=O)[nH]c2=O)cc1  -0.0269
60. O=P(OCC(F)(F)C(F)F)(N1CCCCC1)N1CCCCC1  -0.0155
61. O=C(NCc1ccc(C(=O)N2CCC3(CC2)OCCO3)cc1)c1cccc(Br)c1  -0.0131
62. Cc1ccc(OP(=O)(NCc2ccccc2)Oc2ccc(C)cc2)cc1  -0.00664
63. CCC(C)N1Cc2ccccc2C1=N (stereo unspecified)  -0.00471
64. Nc1cc(N2CCNCC2)c([N+](=O)[O-])cc1Cl  -0.00369
65. Clc1ccc(C(c2ccccc2)c2ncc[nH]2)cc1 (stereo unspecified)  0.0215
66. CC(C)=CCC12CN3CCN(CC(C3)C1=O)C2  0.0294
67. Cc1cnn(C2CCN(C)CC2)c1N  0.0341
68. CCOC(=O)C1=C(C)OC(N)=C(C#N)C12C(=O)N(C)c1ccccc12 (stereo unspecified)  0.0532
69. CCCCC(=O)N/N=C/c1c(O)n(CC)c(=S)[nH]c1=O  0.0587
70. CC(C)CCNC(=O)c1c(N)n(CC2CCCO2)c2nc3ccccc3nc12 (stereo unspecified)  0.063
71. CCc1cccc(CC)c1NC(=S)N1CC2CC(C1)c1cccc(=O)n1C2 (stereo unspecified)  0.0803
72. CC(C(=O)N1CCC2(CC1)OCCO2)C1Sc2ccccc2NC1=O (stereo unspecified)  0.0805
73. COP(=O)(OC)C1(Nc2ccc(C)cc2)CCCCC1  0.118
74. O=C(COc1ccc2ccccc2c1)N1CCN(CC2CC3C=CC2C3)CC1 (stereo unspecified)  0.123
75. CCC1(CC)C(=O)NC(=Nc2cccc(C(F)(F)F)c2)NC1=O  0.126
76. CCN(CC)c1ccc(/C=C2\C(=O)NC(=O)N(Cc3ccco3)C2=O)cc1  0.131
77. CC(C)Oc1ccc(CCN)cc1Cl  0.137
78. O=C1c2ccccc2C(=O)N1Cc1nc2ccccc2c(=O)n1-c1ccc(Br)cn1  0.157
79. CCCCN1C(=O)NC(=O)C2(Cc3ccccc3N3CCOCC32)C1=O (stereo unspecified)  0.172
80. CCCCCCC(N)CC(=O)O (stereo unspecified)  0.181
81. C=CCn1c(O)c(C(C)=NCCCO)c(=O)[nH]c1=O  0.182
82. Cc1cc(C)cc(N2C(=O)NC(=O)/C(=C\c3cccn3-c3ccc(Cl)cc3)C2=O)c1  0.182
83. CCN(CC)c1ccc(/C=N/c2sc3c(c2C#N)C2CCN3CC2)c(O)c1  0.201
84. Cc1nc2ccccc2c(=O)n1-c1ccccc1C(F)(F)F  0.226
85. CC(C)n1cc(C(=O)N(CC(=O)NC(C)(C)C)Cc2ccccc2)cn1  0.258
86. Nc1c(C(=O)NCCCc2ccccc2)c2nc3ccccc3nc2n1Cc1cccs1  0.264
87. CCCn1ncc(C(=O)O)c1C  0.266
88. Cc1c(N=Nc2c(O)n(C)c(=O)n(C)c2=O)c(=O)n(-c2ccccc2)n1C  0.279
89. Cc1cccnc1-n1c(C)nc2ccccc2c1=O  0.284
90. COP(=O)(CC(=O)O)c1ccccc1 (stereo unspecified)  0.3
91. CN(C)C(=O)Nc1cccc(OC(=O)N(C)C)c1  0.313
92. O=c1c2cc(Cl)cc(Cl)c2nc(CN2CCOCC2)n1-c1ccccc1F  0.342
93. Clc1ccc2c(N3CCNCC3)ccnc2c1  0.404
94. Cc1ccc(NC(=O)CN2C(=O)CN=C(c3ccccc3)c3cc(Cl)ccc32)cc1  0.419
95. Cc1nc2ccccc2c(=O)n1-c1cccc(O)c1  0.425
96. ON1C2CCCCC2N(O)C1c1ccccc1F (stereo unspecified)  0.451
97. O=[N+]([O-])c1ccc(N2CCNCC2)cc1NCc1ccco1  0.514
98. COc1ccc(N2CCN(C(CNC(=O)Oc3ccccc3)c3cccnc3)CC2)cc1 (stereo unspecified)  0.515
99. COc1nc(NC(C)C)nc(NC(C)C)n1  0.518
100. Nc1nnc(CCN2CCCCC2)s1  0.564
101. Cc1nnc2ccc(N3CCN(C)CC3)nn12  0.579
102. NS(=O)(=O)c1ccc(N=Cc2c(O)n(C3CCCCC3)c(=O)n(C3CCCCC3)c2=O)cc1  0.651
103. COc1ccc(Cn2c(N)c(C(=O)NCc3ccco3)c3nc4ccccc4nc32)cc1  0.71
104. COC(=O)C(O)(c1ccc(NC(=O)Oc2ccccc2)cc1)C(F)(F)F (stereo unspecified)  0.925
105. CC(Cc1ccccc1Sc1ccccc1O)N(C)C (stereo unspecified)  0.996
106. CCc1ccc(CNCCc2ccccc2F)cc1  1.1
107. CCCCC(=O)N/N=C/c1c(O)n(CC)c(=S)n(CC)c1=O  1.15
108. COc1ccc(CC[n+]2cc(/N=C(\C)[O-])on2)cc1OC  1.18
109. CN(C)P1(N(C)C)=Nc2c(c(N)nn2C)C(c2ccccc2)=N1  1.2
110. O=c1c(/C=N/N2CCOCC2)c(O)n(-c2ccccc2)c(=S)n1-c1ccccc1  1.75

Source: PubChem BioAssay AID488969 (Vanderbilt High Throughput Screening Facility, 2010)
